The source of these data is paper PMC4336329 (PLoS ONE, 2015).

In all, about 310,000 compounds went through this assay and about 14,000 (4.5%) showed an effect of 50% or more. The effect is printed as a negative number. Some of the results follow.
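Further: peak tail current of the secondary pulse compared with the same well before compound.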

In this assay the target is human ether-à-go-go-related gene (hERG) potassium channel (human, UniProt Q12809). Description: primary screen, population patch clamp on CHO cells stably expressing hERG.
Chain of human ether-à-go-go-related gene (hERG) potassium channel (Q12809 whole entry, looked up): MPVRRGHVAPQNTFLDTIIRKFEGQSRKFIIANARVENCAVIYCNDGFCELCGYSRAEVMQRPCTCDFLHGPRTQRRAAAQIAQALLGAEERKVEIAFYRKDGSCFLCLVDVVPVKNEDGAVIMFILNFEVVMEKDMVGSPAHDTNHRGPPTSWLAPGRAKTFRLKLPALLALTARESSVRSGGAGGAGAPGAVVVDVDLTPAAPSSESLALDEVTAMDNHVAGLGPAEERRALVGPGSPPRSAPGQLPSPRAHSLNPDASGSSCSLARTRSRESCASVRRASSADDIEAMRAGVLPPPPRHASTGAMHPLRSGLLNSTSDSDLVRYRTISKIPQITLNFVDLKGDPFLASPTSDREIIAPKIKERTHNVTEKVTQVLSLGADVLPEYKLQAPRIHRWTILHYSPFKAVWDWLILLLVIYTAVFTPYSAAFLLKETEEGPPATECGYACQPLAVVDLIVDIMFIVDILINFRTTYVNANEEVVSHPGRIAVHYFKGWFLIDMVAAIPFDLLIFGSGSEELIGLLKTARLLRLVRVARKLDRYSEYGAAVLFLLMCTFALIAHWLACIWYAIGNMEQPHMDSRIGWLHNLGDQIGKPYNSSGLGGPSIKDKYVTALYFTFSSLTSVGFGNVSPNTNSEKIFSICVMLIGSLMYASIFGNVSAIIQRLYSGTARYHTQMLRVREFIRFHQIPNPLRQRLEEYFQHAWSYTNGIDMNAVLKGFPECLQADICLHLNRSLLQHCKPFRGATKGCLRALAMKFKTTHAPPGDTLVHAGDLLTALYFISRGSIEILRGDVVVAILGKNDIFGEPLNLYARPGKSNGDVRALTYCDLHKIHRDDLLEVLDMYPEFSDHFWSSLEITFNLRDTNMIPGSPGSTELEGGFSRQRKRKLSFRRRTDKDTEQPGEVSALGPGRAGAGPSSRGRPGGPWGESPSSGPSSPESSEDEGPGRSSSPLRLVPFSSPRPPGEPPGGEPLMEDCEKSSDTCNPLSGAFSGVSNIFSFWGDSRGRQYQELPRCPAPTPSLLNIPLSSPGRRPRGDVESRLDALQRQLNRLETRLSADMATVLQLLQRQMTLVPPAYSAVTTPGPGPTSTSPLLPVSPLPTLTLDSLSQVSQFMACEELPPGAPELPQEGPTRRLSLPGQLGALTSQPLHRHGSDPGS
Take `COC(=O)C1=C(c2ccc(F)cc2F)C[C@@H]2CC[C@H]1N2C(=O)NCCNC(C)=O`: the “hERG current change (%, negative = inhibition) at 10uM” value was found to be 23.9%. Then `C#CCN1C(=O)C(O)(CC(=O)c2ccc3c(c2)OCCO3)c2ccccc21` (stereo not shown), with 8.8%; and `Cc1cc(C)n(CC(C)NCc2cn[nH]c2-c2ccc(C)c(C)c2)n1` (stereo not shown), with -35.7%; and `COc1ccccc1C(=O)COC(=O)c1c(-c2ccccc2)noc1C`, with -31.3%.

In the case of `Cl.c1ccc2c(c1)N1CCCN=C1N2CCN1CCCCC1`, the “hERG current change (%, negative = inhibition) at 10uM” value is listed as -62.8%. Then `Cc1cc(=O)oc2cc(OCC(O)CN3CCc4ccccc4C3)ccc12` (stereo not shown), with -31.7%; and `Cc1cc2cc(CNC(=O)C3CCCC3)ccc2n1C`, with 2.82%. Then `COc1ccc(C2CC(c3cccs3)n3nc(N)nc3N2)cc1` (stereo not shown), with -36.6%. Regarding `CC(C)c1nnc(NC(=O)CCC(=O)N2CCC(Cc3ccccc3)CC2)s1`, the “hERG current change (%, negative = inhibition) at 10uM” value is reported as -8.82%. For `CCOc1cc(OCC)nc(S(C)(=O)=O)n1`, the “hERG current change (%, negative = inhibition) at 10uM” value is recorded as -0.891%. For the molecule `Cc1cc(C(=O)Nc2cccc(-c3ccc(N4CCOCC4)nn3)c2)ccc1[N+](=O)[O-]`, the “hERG current change (%, negative = inhibition) at 10uM” value is on record as -38.5%. Under `O=S(=O)(NCC1CCCO1)c1ccc(Cl)nc1` (stereo not shown) stands -2.03%; under `CCOc1cc(CNc2ncc(-c3ccc(OC)cc3)n2C)ccc1O.O=C(O)C(=O)O`, -48.3%. In the case of `O=C(Nc1cccc2cccnc12)C1CCCC1`, the “hERG current change (%, negative = inhibition) at 10uM” value is listed as -27.6%. For `O=C1C(NS(=O)(=O)c2cccs2)=C(N2CCN(c3ccccc3)CC2)C(=O)c2ccccc21`, the “hERG current change (%, negative = inhibition) at 10uM” value was determined as 12.3%. Under `O=C(c1cc(Cl)nc2ccccc12)N1CCN(Cc2ccc3c(c2)OCO3)CC1` stands -37.9%; under `COc1ccccc1CN1C(=O)CNC1=S`, 8.84%; under `CN1CCN(c2ccc([N+](=O)[O-])cc2C(=O)c2ccc(Br)cc2)CC1`, -69.5%. With `COc1ccc(Oc2nccc(-c3ccccc3)c2C#N)cc1`, the “hERG current change (%, negative = inhibition) at 10uM” value is -7.35%. For the molecule `Cc1c(NC(=O)c2cc(-c3ccc(O)cc3)on2)c(=O)n(-c2ccccc2)n1C`, the “hERG current change (%, negative = inhibition) at 10uM” value is listed as -11.3%. Consider `NC(=O)c1c(NC(=O)c2cccc(N3C(=O)CCC3=O)c2)sc2c1CCCCC2`, for which the “hERG current change (%, negative = inhibition) at 10uM” value turned out to be 8.13%. Under `Cc1c(Cl)cccc1NC(=O)CNC(=O)C1CCN(C(=O)Nc2ccccc2)CC1` stands 13.6%; under `Cc1ccc(OCCC(=O)Nc2ccc(F)c(Cl)c2)cc1`, 5.65%; under `Cc1ccc(N2CCN(/N=C/C(Cl)=C/c3ccccc3)CC2)cc1`, -5.13%. Consider `CSc1sc(C)cc1C=O`, for which the “hERG current change (%, negative = inhibition) at 10uM” value was -1.02%. Consider `COc1ccc(C(=O)COC(=O)C2CCC(=O)N2)cc1` (stereo not shown), for which the “hERG current change (%, negative = inhibition) at 10uM” value is 10.6%. Under `CC(C)(CC(=O)O)CC(=O)N1CCN(c2cc(C(F)(F)F)nc3ccccc23)CC1` stands 21.8%; under `CCS(=O)(=O)c1ccc(O)c(NC(=O)c2cc(OC)c(OC)c(OC)c2)c1`, 7.36%. Under `COc1ccccc1OCCSc1nc(N)cc(N)n1` stands 5.67%; under `Cc1cccc(Nc2ncnc3nc[nH]c23)c1`, -22.9%. Then `C/C=C/c1ccc(OCC(=O)NCc2ccccc2OC)c(OC)c1`, with -21.9%; and `Cc1cc(NC(=O)c2ccc3c(c2)C(=O)N(c2cccc(C)c2C)C3=O)no1`, with 11.1%. Take `Cc1nc(NC(=O)C23CCC(C)(C(=O)O2)C3(C)C)sc1C` (stereo not shown): the “hERG current change (%, negative = inhibition) at 10uM” value is listed as -2.51%.

Turning to `CCCCn1c(SCC(=O)/C(C#N)=C(\C)N)nc2ccccc2c1=O`, the “hERG current change (%, negative = inhibition) at 10uM” value was -1.82%. Then `CCOP(=O)(OCC)c1nc(-c2cccc3ccccc23)oc1NCc1ccc(OC)cc1`, with 2.77%; and `CC(=O)OCC1(C)CN(c2ccccc2)NC1=O` (stereo not shown), with 13.7%; and `COc1ccc(CCNC(=O)C2CCCN2C(=O)Nc2ccccc2)cc1OC` (stereo not shown), with 14.9%. Under `COc1cc(C2=NOC(C(=O)Nc3cccnc3)C2)cc(OC)c1OC` (stereo not shown) stands 9.72%; under `CCN(Cc1ccccc1)S(=O)(=O)c1ccc(C(=O)N(CCCN(C)C)c2nc3c(C)c(C)ccc3s2)cc1.Cl`, -3.58%. With `Cn1c(=O)c2cc(S(=O)(=O)NC(Cc3ccccc3)C(=O)NCc3ccco3)ccc2n(C)c1=O` (stereo not shown), the “hERG current change (%, negative = inhibition) at 10uM” value was -33.8%. For the molecule `CC1CC(C)CN(c2cc(=O)n(Cc3ccc(F)cc3)c(=O)[nH]2)C1` (stereo not shown), the “hERG current change (%, negative = inhibition) at 10uM” value is reported as 4.83%. Under `CCOC(=O)NC(=O)CSc1nc(C)cc(C(F)(F)F)c1C#N` stands -19.8%; under `CCn1cc(SCC(=O)NCc2ccc3c(c2)OCO3)c2ccccc21`, -13.9%.
